Laboratory results from PubChem BioAssay AID1159614 (National Center for Advancing Translational Sciences (NCATS), 2016).
In all, about 45,000 compounds went through this assay and about 65 (0.1%) were called active. The call rests on the fitted dose curve; in most records, active means well fitted activation curve with a large enough effect; inconclusive means small, poorly fitted or top-dose-only effect; inactive means no such curve, though single readings can be large or run the other way. Some of the results follow.

Molecular target: Galactocerebrosidase (Homo sapiens) (UniProt P54803)
Assay: A Novel Cell-Based Assay to Identify Small Molecules for B -Galactocerebrosidase; further: 0% is about no effect; nearly all actives have a fitted effect of over 65% in size
Settings: 145M-Twi-hGALC-G270D cells (Twitcher mouse brain line with human GALC G270D), HMU-beta-Gal fluorescence, 48 h; series mostly up to 57.5 µM; activation: at the top concentration
Method in brief: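 Live 145M-Twi cells (Twitcher mouse brain-derived, GALC-null) stably expressing human GALC-G270D, with a wild-type GALC line, were compound-treated. Residual GALC activity was then read as fluorescence from 0.1 mM final HMU-β-gal at pH 5.2; higher signal means activation.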

Sequence of UniProt P54803 (P54803 whole entry, looked up): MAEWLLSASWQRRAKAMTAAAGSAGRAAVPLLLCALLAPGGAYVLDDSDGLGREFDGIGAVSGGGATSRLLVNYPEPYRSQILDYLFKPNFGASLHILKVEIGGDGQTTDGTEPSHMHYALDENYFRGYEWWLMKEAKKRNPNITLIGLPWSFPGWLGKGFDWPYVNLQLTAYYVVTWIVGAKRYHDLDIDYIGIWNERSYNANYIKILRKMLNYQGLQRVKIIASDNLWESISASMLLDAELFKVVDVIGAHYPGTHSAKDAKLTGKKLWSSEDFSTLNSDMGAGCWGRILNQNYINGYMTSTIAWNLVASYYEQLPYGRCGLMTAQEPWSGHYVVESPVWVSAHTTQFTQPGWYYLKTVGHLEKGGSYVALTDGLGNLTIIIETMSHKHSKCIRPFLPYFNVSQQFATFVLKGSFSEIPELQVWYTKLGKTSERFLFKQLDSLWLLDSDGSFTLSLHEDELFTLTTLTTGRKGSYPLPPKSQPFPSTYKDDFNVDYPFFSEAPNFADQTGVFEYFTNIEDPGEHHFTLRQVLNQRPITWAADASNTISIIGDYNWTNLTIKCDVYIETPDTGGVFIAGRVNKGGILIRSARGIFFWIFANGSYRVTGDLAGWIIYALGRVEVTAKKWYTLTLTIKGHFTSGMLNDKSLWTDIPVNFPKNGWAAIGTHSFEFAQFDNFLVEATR

activation, inactive:
NC(=O)C1(N2CCCCC2)CCN(C(=O)Nc2ccc(C(F)(F)F)cc2)CC1 -4.46%
Cc1ccc(NCc2ccccc2-c2nnc(-c3ccccc3Cl)o2)c(C)c1 -9.43%
CCS(=O)(=O)c1ncc(Cl)c(C(=O)N2CCN(c3cccc(Cl)c3)CC2)n1 -11.3%
[O-][n+]1ccccc1SSc1cccc[n+]1[O-] -8.19% [at 23.8 µM]
Cc1ccc(CNS(=O)(=O)c2cc(C(=O)Nc3cccc(C(F)(F)F)c3)ccc2F)cc1 -23.4%
Cc1ccc2c(c1)c1c(c(=O)n(-c3ccccc3C)c(=O)n1CC(=O)NCc1ccccc1)n2C -7.39%
COc1ccc(CC(=O)NCc2ccc3c(c2)CCN3C(=O)c2ccc(Cl)cc2)cc1OC -8.59%
CN1CCCN=C1COC(=O)C(O)(c1ccccc1)C1CCCCC1 (stereo unspecified) -5.72%
CCOC(=O)c1ccc(N2C(=O)c3n[nH]c(-c4cccs4)c3C2c2ccc(C(C)C)cc2)cc1 (stereo unspecified) 2.15%
O=c1cc(-c2ccccc2)c2cc(Cl)c3c(c2o1)CN(Cc1ccccc1)CO3 -21.8%
COc1ccccc1-c1cc(C(F)(F)F)nc(S(=O)(=O)CCCC(=O)Nc2cc(OC)c(OC)c(OC)c2)n1 -3.05%
Cc1cc(C)c2c(=O)cc(CSc3nnc(COc4ccccc4C)n3C)[nH]c2c1 -8.03%
COc1ccc(N(Cc2cccs2)C(=O)Nc2ccccc2)cc1 -4.93%
COc1ccc(OC)c(NC(=O)CN2C(=O)c3ccccc3Sc3ccc(C(=O)N4CCCC4)cc32)c1 -5.19%
Cc1cc(-c2ccc(C)c(S(=O)(=O)N(C)c3ccc(C)c(C)c3)c2)on1 -11%
COc1ccccc1NC(=O)Cn1c(=O)n(Cc2ccco2)c(=O)c2cccnc21 -21.4%
CCOC(=O)c1c(Oc2ccc(OC)cc2)nnc(-c2ccccc2)c1-c1ccccc1 -10.6%
Cc1ccc(OCCCn2c(CCNC(=O)C3CCCCC3)nc3ccccc32)c(C)c1 -3.37%
CN(C(=O)C(=O)Nc1ccc2nc3n(c(=O)c2c1)CCCCC3)c1cccc(C(F)(F)F)c1 -3.67%
CCc1ccc(NC(=O)Cn2c(=O)oc3cc(S(=O)(=O)N4CCCCCC4)ccc32)cc1 -8.17%
CC(C)Sc1ncc(Cl)c(C(=O)Nc2nnc(C(C)C)s2)n1 -17%
Cc1onc(-c2ccc(F)cc2F)c1C(=O)Nc1cccc(C(F)(F)F)c1 10.3%
O=C(Nc1ccccc1)c1cccc(S(=O)(=O)Nc2cccc(F)c2)c1 -13.3%
COc1cccc(-c2ccc3c(N)c(C(=O)NCc4ccc(Cl)cc4)sc3n2)c1 8.84%
CCc1ccc(CNC(=O)c2cc(-c3ccc(Br)s3)nc3ccccc23)cc1 -2.93%
Cc1ccc(S(=O)(=O)N2CCOCC2)cc1C(=O)Nc1ccccc1C(=O)O -9.47%
Cc1ccc2onc(CC(=O)N(C)c3ccccc3)c2c1 -8.59%
COc1ccc(CCNC(=O)c2c(C)nn(-c3ccc(F)cc3)c2-n2cccc2)cc1OC -23.8%
O=S(=O)(Nc1ccc2nc(-c3cccc(Cl)c3)oc2c1)c1ccccc1 -31.7%
Cc1cccc(N2CCN(C3(c4ccccc4)C(=O)c4ccccc4C3=O)CC2)c1C -20.6%
CC(=O)N[C@@H](CCC(N)=O)C(=O)O -9.26%
Cc1nn(C)c2c1c(C(F)(F)F)cc(=O)n2Cc1cccc(Br)c1 -2.17%
CCOC(=O)c1cc(-c2ccccc2)n(CCC(=O)Nc2ccc(Cl)c(C(F)(F)F)c2)c1C -11%
Cc1cccc(NS(=O)(=O)c2ccc(-n3cccn3)cc2)c1C -33.3%
C/C=C/C=N/NC(=O)c1ccncc1 -11.5%
CC(C)CNc1nc(Oc2ccc(OCC(N)=O)nn2)nc(N2CCOCC2)n1 0.943%
CCOc1ccc(CNC(=O)c2ccc(NC(=O)N3CCCCc4ccccc43)cc2)cc1OC -8.62%
CCn1cc(C(=O)NCc2ccc(C)cc2)c(=O)c2cc(S(=O)(=O)N3CCCCCC3)ccc21 -2.94%
COc1ccccc1CNC(=O)c1ccc2nc(-c3ccccc3)c(-c3ccccc3)nc2c1 -9.68%
O=C(CCc1nc2cccnc2n1Cc1cccs1)Nc1cccc(Cl)c1 -6.67%
CCOc1ccc(-n2c(-c3ccccc3)c(C)n3c4c(=O)n(C)c(=O)n(C)c4nc23)cc1 -7.08%
Cn1cc(S(=O)(=O)N2CCCCCC2)cc1C(=O)NCc1ccccc1Cl -16.7%
CCCC(=O)NCC(c1ccc2c(c1)OCO2)N1CCN(c2ccccc2)CC1 (stereo unspecified) -15.7%
CCOC(=O)N1CCc2c(sc(NCc3ccc(OC)c(OC)c3OC)c2C(=O)Nc2ccc(OC)cc2OC)C1 -10.7%
CCc1ccc(-n2c(=O)c3sc4ccccc4c3n(Cc3cccc(F)c3)c2=O)cc1 -15%
CCCCCOc1ccc(/C=C/C(=O)Nc2sc(C(C)=O)c(C)c2C(=O)OCC)cc1OC -9.34%
CCc1nnc(NC(=O)c2nc(SCc3ccccc3C)ncc2Cl)s1 11.1%
CCCNC(=O)C1CCN(c2ncnc3c2nc2n3CCCCC2)CC1 -8.61%
Cc1c(Cl)cccc1NC(=O)Cn1c(=O)nc(-c2ccccc2)c2ccccc21 -10.7%
CC(=O)NO -22%
Cc1oc(C)c2c(=O)cc(-c3ccc4c(c3)OCO4)cc(OC(=O)c3ccccc3Cl)c12 -10.2%
COC(=O)c1cc(S(=O)(=O)NCC2CCN(Cc3cccc(F)c3)CC2)c[nH]1 -13.2%
CCc1cc2c(cc3c(=O)n(CC(=O)NCCc4ccc(OC)c(OC)c4)ncn32)s1 -10.5%
COc1ccc(-c2nc(CN3CCC(C(=O)NCCCOC(C)C)CC3)c(C)o2)cc1OC 9%
COc1cccc(-n2cc(C(=O)NCc3ccccc3OC)c3ccccc3c2=O)c1 -19.5%
COc1cccc(OCCSc2nc3ccccc3n2CC(=O)N2CCCCC2)c1 -30.3%
Cc1ccccc1Cn1c(=O)n(CCc2ccccc2)c(=O)c2c(C)c(C)sc21 -17.7%
COc1ccc(NC(=O)Cn2c(=O)n(Cc3nc(C)no3)c(=O)c3cc4c(cc32)OCO4)cc1OC -6.86%
Cc1cccc(C)c1-n1ncc(C(=O)NCCN2CCOCC2)c1C1CCN(C(=O)OC(C)(C)C)CC1 -1.91%
COC(=O)CSc1nc(-c2ccc(F)cc2)cc(C(F)(F)F)n1 12.7%
O=C(CCn1ccc2cc(S(=O)(=O)N3CCCC3)ccc21)NCc1cccc(F)c1 -10.3%
COc1cc(OC)c(C2Nc3ccccc3-c3nnc(SCc4ccccc4)nc3O2)cc1OC (stereo unspecified) -11.8%
COc1ccc(OC)c(C2N=C(N)Nc3nc4ccccc4n32)c1 (stereo unspecified) -3.07%
Cc1ccc(C)c(NC(=O)CCn2nc(C)c3c(C)n(-c4ccccc4)nc3c2=O)c1 5.8%
Cc1nc(-c2ccc(Cl)cc2)sc1CCNC(=O)c1ccc(C(F)(F)F)cc1 -13.4%
CCC1CCc2nc3sc(C(=O)Nc4ccc(F)c(Cl)c4)c(N)c3cc2C1 (stereo unspecified) 3.27%
COc1ccccc1C(=O)OCc1cc(=O)n2nc(C3CC3)sc2n1 -17.9%
Cc1ccc(C)c(NC(=O)c2ccc3c(c2)CCN3S(C)(=O)=O)c1 4.91%
Cc1cccc(-c2nn3c(=O)cc(CN4CCN(S(=O)(=O)c5ccc(Cl)cc5)CC4)nc3s2)c1 -8.36%
CCC(C(=O)Nc1ccccc1C(=O)OC)n1nc(C)c2c(C)n(-c3ccc(C)cc3)nc2c1=O (stereo unspecified) -0.7%
Cc1c(Cl)cccc1NC(=O)C(C)n1c(=O)cc(-c2ccccc2)c2c(C)nn(C)c21 (stereo unspecified) -16.9%
COc1ccc(NC(=O)C(c2ccc(C)cc2)N(C)C(=O)Cc2cccs2)cc1 (stereo unspecified) -13.1%
COc1ccccc1CNC(=O)CSc1ncc2c(n1)-c1ccc(Cl)cc1N(Cc1ccccc1)S2(=O)=O -21.8%
CCOc1ccccc1C(=O)N1CC(=O)Nc2ccc(Cl)cc2C1c1ccccc1 (stereo unspecified) -18.2%
COc1ccc(-c2cccc(NS(=O)(=O)c3cc(C)c(OC)c(C)c3C)c2)nn1 -13.5%
O=C(Cn1c(=O)c2cc(Cl)ccc2n2nncc12)Nc1ccccc1 -5.96%
Cc1ccc(NC(=O)C2CCCN2S(=O)(=O)c2ccc3c(c2)CCCC(=O)N3)cc1C (stereo unspecified) -1.82%
O=C(Cn1c(-c2cccs2)cc2cc(Cl)ccc21)N1CCN(c2ccccc2)CC1 -25.9%
CCc1ccc(NC(=O)c2sc3nc(C)c(Cl)c(C)c3c2N)cc1 -7.61%
CCc1ccc(-c2nc(CN3CCCC(C(=O)N4CCN(c5cc(Cl)ccc5C)CC4)C3)c(C)o2)cc1 (stereo unspecified) -41.1%
COc1ccc(Cl)cc1NC(=O)CN(C)S(=O)(=O)c1ccc2c(c1)CCCN2C(C)=O -7.05%
CC(CNC(=O)Cn1ccc2cc(S(=O)(=O)N3CCCCCC3)ccc21)c1ccccc1 (stereo unspecified) -8.55%
CC(=O)Nc1cc(C(=O)NCc2ccc(C)cc2)ccc1Sc1ccc(C)cc1 -14%
O=C(CC(c1cccs1)N1Cc2ccccc2C1=O)Nc1ccc(F)c(Cl)c1 (stereo unspecified) 11.7%
C=CCC(CC=C)(CNC(=O)C(=O)Nc1cccc(C(F)(F)F)c1)c1ccccc1 4.8%
Cc1ccc(Oc2c(C(F)(F)F)oc3cc(OCC(=O)NC4CCCCC4)ccc3c2=O)cc1 2.7%
CCc1cccc(C)c1NC(=O)CSc1nc(C)cc(C)c1C(=O)Nc1ccccc1 -3.07%
CCCN1C(=O)C(O)(CC(=O)c2ccc(CC)cc2)c2ccccc21 (stereo unspecified) -16.3%
Cc1cccc(-n2c(=O)c3c(c4cc(C)ccc4n3C)n(CC(=O)NCCC3=CCCCC3)c2=O)c1 -4.94%
COc1ccc(-c2noc(-c3cccnc3NCc3ccco3)n2)cc1 -6.51%
COc1ccc(-c2onc(C)c2C)cc1S(=O)(=O)NCC1CCN(Cc2ccccc2F)CC1 -8.45%
CCOC(=O)CSc1nc2ccccc2c(=O)n1CCc1ccc(OC)c(OC)c1 -9.19%
CCC1CN(C(=O)N2CCC(C(=O)NCCN(CC)CC)CC2)c2ccccc2O1 (stereo unspecified) -10.5%
CCOC(=O)c1cc(-c2ccc(OC)c(S(=O)(=O)Nc3ccc(OC)cc3OC)c2)on1 -17.8%
Cc1ccc(CNC(=O)c2nnc(Cc3cccc(F)c3)o2)cc1 -15.8%
CCc1cccc(CC)c1NS(=O)(=O)c1ccc2c(c1)CCN2C(=O)C1CC1 -2.72%
